Each structure is given as a SMILES string. Out of some 43,000 compounds screened, about 200 (0.47%) were called active. Another 12% or so got no clear call; they are omitted. Calls come from the whole dose curve; as a rule, active = well fitted cell-killing curve with a large enough effect; inconclusive = small, poorly fitted or top-dose-only effect, or effect the other way; inactive = flat fitted curve, though single readings scatter. This is one part of the list.
% is set by controls: 0 for no effect and ±100 for the full control effect.

The nature of this assay: Cell viability qHTS assay in S16 Pmp22-F2sN cells. Note: nearly all actives have a fitted effect of over 65% in size. To be noted: S16 Pmp22-F2sN Schwann cells (luciferase reporters placed in the Pmp22 gene) viability, CellTiter-Glo, 24 h; series mostly up to 57.5 µM; activity change, negative = cytotoxicity: at the top concentration. In short, it runs like this:
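Seed 500-1,000 S16 Pmp22-F2sN cells per well in phenol-red-free DMEM with 10% heat-inactivated FBS; pin-add 23 nL compound; incubate 24 h at 37C; add CellTiter-Glo, wait 15 min protected from light; read luminescence.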
In general terms: In qHTS, concentration-response curves come from the screen itself.
For `CC(C)c1ccc(NC(=O)C(Cc2ccccc2)NS(=O)(=O)c2ccc3c(c2)CCC(=O)N3)cc1` (stereo unspecified), the “activity change, negative = cytotoxicity” value is inactive: 5.05%.

For `Cn1nnnc1SCCNCc1ccccc1Cl`, the “activity change, negative = cytotoxicity” value is inactive: 9.84%.

Consider `COc1cc2ncc3c(-c4ccccc4)nn(-c4ccc(C)cc4)c3c2cc1OC`, for which the “activity change, negative = cytotoxicity” value was inactive: 5.36%.

In the case of `COc1ccc(Cn2c(CO)cnc2SCC(=O)NCc2ccco2)cc1`, the “activity change, negative = cytotoxicity” value was inactive: 8.43%.

Consider `Cc1ccc(C)c(CN2C(=O)c3ccccc3Sc3ccc(C(=O)NCc4ccc5c(c4)OCO5)cc32)c1`, for which the “activity change, negative = cytotoxicity” value was inactive: 4.33%.

On to `COc1cc(NC(=O)CC(C)S(=O)(=O)c2cc3c4c(c2)CCN4C(=O)CC3)cc(OC)c1` (stereo unspecified), for which the “activity change, negative = cytotoxicity” value is inactive: 6.84%.

For `Cc1ccccc1C(=O)Nc1cccc(C(=O)OCc2cc(=O)n3nc(C4CC4)sc3n2)c1`, the “activity change, negative = cytotoxicity” value was inactive: 2.9%.

Take `CC(=O)c1cccc(NC(=O)c2ccc3nc(C(C)C)oc3c2)c1`: the “activity change, negative = cytotoxicity” value is inactive: 12.3%.

As to `COc1ccc(-c2nc(Cn3c(SCc4ccc(F)cc4)nc4cccnc43)c(C)o2)cc1`, the “activity change, negative = cytotoxicity” value was inactive: -2.14%.

Regarding `COc1ccc(NC(=O)c2c(NC(=O)c3cccc(C)c3)sc3c2CCCC3)cc1`, the “activity change, negative = cytotoxicity” value is inactive: 0.472%.

Regarding `Cc1ccc([N+](=O)[O-])cc1S(=O)(=O)N1CCn2cccc2C1c1ccc(F)c(F)c1` (stereo unspecified), the “activity change, negative = cytotoxicity” value is inactive: -3.09%.

`Cc1ccc(OCC(=O)N(Cc2sccc2C)C2CCS(=O)(=O)C2)cc1` (stereo unspecified): the “activity change, negative = cytotoxicity” value was inactive: 7.84%.

Take `Cc1ccccc1NC(=O)Nc1cccs1`: the “activity change, negative = cytotoxicity” value was inactive: -12.9%.

As for `O=C1c2oc3ccccc3c(=O)c2C(c2cccc(Br)c2)N1c1ccccn1` (stereo unspecified), the “activity change, negative = cytotoxicity” value was inactive: 7.97%.

Consider `CCCCN(C)C(=O)Cn1cnc2sc(C)c(S(=O)(=O)N3CCN(c4ccccc4OC)CC3)c2c1=O`, for which the “activity change, negative = cytotoxicity” value was inactive: 1.81%.

For `CCOc1ccc(NC(=O)Cn2c(CCC(=O)O)ccc2-c2ccc(C)cc2)cc1`, the “activity change, negative = cytotoxicity” value is inactive: -3.42%.

In the case of `COc1ccc(-c2noc(CSc3nnc(-c4ccncc4)n3-c3ccc(C)c(C)c3)n2)cc1`, the “activity change, negative = cytotoxicity” value is inactive: -24.4%.

As to `Clc1ccc(Nc2nc(-c3ccccc3)c3cc(Cl)ccc3n2)cc1`, the “activity change, negative = cytotoxicity” value was inactive: 12.5%.

`Cc1ccc2onc(CC(=O)N3CCN(c4cccc(C)c4C)CC3)c2c1`: the “activity change, negative = cytotoxicity” value was inactive: -12.4%.

`Cc1cc(=O)n2nc(N3CCC(C(=O)NCc4ccc(Cl)cc4)CC3)sc2n1`: the “activity change, negative = cytotoxicity” value was inactive: -3.08%.

With `O=C(Cn1c(=O)nc(-c2ccccc2)c2cc(Cl)ccc21)NCCc1ccccc1`, the “activity change, negative = cytotoxicity” value was inactive: -0.844%.

`COc1cc(Cl)c(C)cc1NC(=O)c1cc2c(s1)-c1c(C)cccc1OC2`: the “activity change, negative = cytotoxicity” value was inactive: -5.14%.

With `Cc1cc2[nH]c(=O)c(=O)[nH]c2cc1S(=O)(=O)Nc1cccc(C(F)(F)F)c1`, the “activity change, negative = cytotoxicity” value is inactive: 5.61%.

For `Cc1sc2ncn(CC(=O)N3CCN(c4ccc(F)cc4)CC3)c(=O)c2c1S(=O)(=O)N1CCN(c2ncccn2)CC1`, the “activity change, negative = cytotoxicity” value was inactive: 19.4%.

As to `CCc1nn(CC(=O)N2CCN(c3cccc(C)c3C)CC2)c(=O)c2cc3sccc3n12`, the “activity change, negative = cytotoxicity” value was inactive: 3.9%.

As for `CCC(=O)N1CCc2cc(S(=O)(=O)NC(CC(C)C)C(=O)NCc3ccc(C)cc3)ccc21` (stereo unspecified), the “activity change, negative = cytotoxicity” value was inactive: -2.68%.

Regarding `O=C(c1cc(F)cc(F)c1)N1CCC(c2nc(-c3ccc(S(=O)(=O)N4CCCC4)cc3)no2)CC1`, the “activity change, negative = cytotoxicity” value was inactive: -0.526%.

In the case of `COc1ccc(OC)c(CCNC(=O)c2cc3c(=O)n(C)c4ccccc4c3n2C)c1`, the “activity change, negative = cytotoxicity” value was inactive: 14.3%.

Consider `CCOc1ccc(NC(=O)CN2CCN(c3ccc(Cl)cc3)CC2)cc1`, for which the “activity change, negative = cytotoxicity” value was inactive: -0.223%.

Turning to `CCc1cccc(NC(=O)CCN2C(=O)c3ccccc3Sc3ncccc32)c1`, the “activity change, negative = cytotoxicity” value was inactive: -11%.

For the compound `CCOC(=O)c1cccc(NC(=O)C2CCCN(S(=O)(=O)c3cc(Br)cc4c3N(C(=O)CC)CC4)C2)c1` (stereo unspecified), the “activity change, negative = cytotoxicity” value is inactive: -0.283%.

Turning to `COc1ccc(CN(C(=O)Cc2coc3ccc(C)cc23)C2CCS(=O)(=O)C2)cc1` (stereo unspecified), the “activity change, negative = cytotoxicity” value is inactive: -0.23%.

In the case of `Cc1cc(=O)n2nc(N(C)CC(=O)NCc3ccc(Cl)cc3)sc2n1`, the “activity change, negative = cytotoxicity” value was inactive: 5.58%.

For the compound `Cn1ncc(C(=O)N2CCN(c3ccccc3F)CC2)c1C1CCN(C(=O)OC(C)(C)C)CC1`, the “activity change, negative = cytotoxicity” value is inactive: -0.765%.

For `Cc1cc(SCC(=O)NCc2ccc(F)cc2)nc(=O)[nH]1`, the “activity change, negative = cytotoxicity” value was inactive: -6.26%.

`CC(=O)c1ccc(NC(=O)CSc2nccn2Cc2ccc3c(c2)OCO3)cc1`: the “activity change, negative = cytotoxicity” value is inactive: -14.7%.

In the case of `COc1cc(NC(=O)c2ncn(-c3ccccc3)n2)cc(OC)c1`, the “activity change, negative = cytotoxicity” value was inactive: 2.78%.

As for `O=C(COCc1cc(-c2ccco2)on1)Nc1cccc(Cl)c1Cl`, the “activity change, negative = cytotoxicity” value was inactive: 6.9%.

Take `CCOc1ccccc1-n1nnc(S(=O)(=O)c2ccc(C)cc2)c1N`: the “activity change, negative = cytotoxicity” value was inactive: -14.3%.

For `Cc1ccc(NC(=O)c2nc(-c3ccncc3)no2)c(Cl)c1`, the “activity change, negative = cytotoxicity” value was inactive: 7.59%.

Consider `COc1ccc(C2N3CC4(C)CN2CC(c2ccccc2)(C3)C4=O)cc1` (stereo unspecified), for which the “activity change, negative = cytotoxicity” value was inactive: 1.47%.

Take `CCCCN(CC)CCCNC(=O)c1cn(CC)c2ccc(S(=O)(=O)N3CCOCC3)cc2c1=O`: the “activity change, negative = cytotoxicity” value is inactive: -1.32%.

In the case of `CC(C)c1ccc(NC(=O)CCNS(=O)(=O)c2cccc3nsnc23)cc1`, the “activity change, negative = cytotoxicity” value was inactive: 4.83%.

For `COc1ccc(C(=O)Oc2ccc(C(c3c(C)[nH][nH]c3=O)c3c(C)[nH][nH]c3=O)cc2OC)cc1`, the “activity change, negative = cytotoxicity” value is inactive: 6.62%.

On to `CN1CCN(CCC(=O)Nc2ccc(Cl)cc2)CC1`, for which the “activity change, negative = cytotoxicity” value was inactive: -1.4%.

For the compound `CCOc1ccc(NC(=O)c2oc3ccccc3c2NC(=O)Cc2cccc(C)c2)cc1`, the “activity change, negative = cytotoxicity” value was inactive: 16.4%.

In the case of `COc1ccc(OC)c(NS(=O)(=O)c2ccc(Br)s2)c1`, the “activity change, negative = cytotoxicity” value is inactive: -0.858%.

In the case of `O=C(COc1ccc(Cl)cc1)NCCc1csc(-c2cccc(F)c2)n1`, the “activity change, negative = cytotoxicity” value is inactive: -1.26%.

With `CCCN1C(C(=O)c2ccccc2)=C(OC(=O)c2ccc(C)cc2)c2ccccc2S1(=O)=O`, the “activity change, negative = cytotoxicity” value is inactive: -21.3%.

Turning to `Cc1ccc(NC(=O)Cn2c(=O)ccc3cc(S(=O)(=O)N4CCC(C)CC4)ccc32)cc1C`, the “activity change, negative = cytotoxicity” value was inactive: -0.758%.

On to `Cc1cccc(NC(=O)CSc2nc(=O)n(Cc3cccnc3)c3c2CCC3)c1`, for which the “activity change, negative = cytotoxicity” value was inactive: -20.8%.

In the case of `CCOc1ccccc1CNc1nc2nc(C)c(CC(=O)OC)c(=O)n2[nH]1`, the “activity change, negative = cytotoxicity” value was inactive: -9.35%.

On to `Cc1cccc(-c2nc(C)c(CCNC(=O)C(=O)Nc3ccc(C)c(C)c3)s2)c1`, for which the “activity change, negative = cytotoxicity” value was inactive: 11.7%.

Turning to `Cc1ccc(-n2ncc3c(N4CCN(Cc5ccccc5)CC4)ncnc32)cc1`, the “activity change, negative = cytotoxicity” value is inactive: 10.1%.

With `COc1ccc(Cl)cc1S(=O)(=O)N1CCN(C(=O)c2cc(-c3ccc(Br)cc3)n[nH]2)CC1`, the “activity change, negative = cytotoxicity” value is inactive: -5.47%.

`O=C(CSc1nc(=O)[nH]c2c1CCC2)NCc1ccc(F)cc1`: the “activity change, negative = cytotoxicity” value is inactive: -2.68%.

On to `O=C(CCS(=O)(=O)c1cccc2nonc12)Nc1ccc(F)cc1F`, for which the “activity change, negative = cytotoxicity” value is inactive: 7.09%.

Turning to `COc1ccccc1N1CCN(C(=O)c2ccc3c(c2)CCN3S(=O)(=O)c2ccccc2)CC1`, the “activity change, negative = cytotoxicity” value was inactive: 6.65%.

For `Cc1ccc(-c2nnn3c2nc(NCc2ccc4c(c2)OCO4)c2ccccc23)cc1`, the “activity change, negative = cytotoxicity” value is inactive: 3.97%.

With `Cc1ccc2nc(-c3c[nH]c4ccccc34)c(Nc3ccc(F)cc3)n2c1`, the “activity change, negative = cytotoxicity” value was inactive: -8.44%.

In the case of `Cc1ccc(CNC(=O)C(C)n2c(=O)cc(-c3ccccc3)c3c(C)nn(C)c32)cc1` (stereo unspecified), the “activity change, negative = cytotoxicity” value is inactive: -4.09%.

(Values after PubChem BioAssay AID1508642 (National Center for Advancing Translational Sciences (NCATS), 2021).)
